# Reference: a collection of fitness landscapes (doi:10.1016/j.celrep.2020.107928)
# In all, about 81,000 sequences were measured (“one-hybrid fitness for binding parS DNA”: median about -0.17, highest 2% from about 0.51 on). The list shows a part of the results.
# B1: Caulobacter ParB omega fusion; a variant is named by its letters at X, in order, B8GW30 (parent)
# chain: MESVVVGEPGMSEGRRGLGRGLSALLGEVDAAPAQAPGEQLGGSREAPIEILQRNPDQPRRTFREEDLEDLSNSIREKGVLQPILVRPSPDTAGEYQIVAGERAWRAAQRAGLKTVPIMVRELDDLAVLEIGIIENVQRADLNVLEEALSYKVLMEKFERTQENIAQTIGKSXSHVANXMRLLXLPDEVQSYLVSGELTAXHARAIAAAADPVALAKQIIEGGLSVRETEALARKAPNLSAGKSKGGRPPRVKDTDTQALESDLSSVLGLDVSIDHRGSTGTLTITYATLEQLDDLCNRLTRGI
# Variants of: B1
# Experiment: one-hybrid fitness for binding parS DNA (scaled: cognate 1, non-cognate 0); higher = stronger binding
# Details: with parS DNA site
# Outline: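 Bacterial one-hybrid selection in E. coli USO rpoZ- hisB- pyrF- with a HIS3 reporter carrying the site 19 bp from the promoter, screening Caulobacter ParB libraries with four specificity codons randomised (NNS). Cells grew 48 hours at 37°C on M9-minus-histidine plus 0.1 mM IPTG and 5 mM 3-AT. Plasmids before and after selection were Illumina-sequenced, three replicate libraries pooled, and variants under 10 reads dropped. Fitness is the log change in variant-to-wild-type read ratio, rescaled to cognate 1, non-cognate 0.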
row,Variant,one-hybrid fitness for binding parS DNA
1,HSVN,≤ 0.2
2,SFRG,≤ 0.2
3,PLAF,≤ 0.2
4,RADS,0.966
5,YLRA,≤ 0.2
6,LYCR,≤ 0.2
7,PGED,≤ 0.2
8,QHQR,≤ 0.2
9,PCST,≤ 0.2
10,VNPR,≤ 0.2
11,ICCS,≤ 0.2
12,EGEG,0.214
13,YASN,≤ 0.2
14,SLDG,≤ 0.2
15,MRKT,≤ 0.2
16,PSGL,≤ 0.2
17,NGLP,≤ 0.2
18,PRKG,≤ 0.2
19,RYCH,0.223
20,YTYT,≤ 0.2
21,ETQR,≤ 0.2
22,VRRL,≤ 0.2
23,PVSA,≤ 0.2
24,ADVY,≤ 0.2
25,PCAF,≤ 0.2
26,PQPC,≤ 0.2

row,Variant,one-hybrid fitness for binding parS DNA
1,QMRW,≤ 0.2
2,MEFS,≤ 0.2
3,FFVP,≤ 0.2
4,TTGN,≤ 0.2
5,MSCG,≤ 0.2
6,GWYW,≤ 0.2
7,CRPT,≤ 0.2
8,MFLN,≤ 0.2
9,HSAM,≤ 0.2
10,TMVG,≤ 0.2
11,RHFI,≤ 0.2
12,VTER,≤ 0.2
13,MHFG,≤ 0.2
14,PAFR,≤ 0.2
15,VVDL,≤ 0.2
16,QMWD,≤ 0.2
17,LCHL,≤ 0.2
18,HKWV,≤ 0.2
19,VHYR,≤ 0.2
20,RLLH,0.248
21,CRQL,≤ 0.2
22,LVPE,≤ 0.2
23,IHPT,≤ 0.2
24,MEVV,≤ 0.2
25,RNVI,≤ 0.2
26,PYRS,≤ 0.2

row,Variant,one-hybrid fitness for binding parS DNA
1,SELS,≤ 0.2
2,NRKS,≤ 0.2
3,LKDF,≤ 0.2
4,SWFR,≤ 0.2
5,YQLS,≤ 0.2
6,RFGL,≤ 0.2
7,NTQA,≤ 0.2
8,KRIS,≤ 0.2
9,DSKR,≤ 0.2
10,QANM,≤ 0.2
11,WVRF,≤ 0.2
12,TTAK,≤ 0.2
13,AFNT,≤ 0.2
14,DITP,≤ 0.2
15,QMRD,≤ 0.2
16,ITTR,≤ 0.2
17,SRIR,≤ 0.2
18,CTLG,≤ 0.2
19,FHGR,≤ 0.2
20,QKKD,≤ 0.2
21,PSVK,≤ 0.2
22,AEVH,≤ 0.2
23,RVSP,≤ 0.2
24,SDAI,≤ 0.2
